{
  "sequences": {"note": "Chains of the proteins cited; added tags and fusions are not shown.", "UniProt Q8K1M6": "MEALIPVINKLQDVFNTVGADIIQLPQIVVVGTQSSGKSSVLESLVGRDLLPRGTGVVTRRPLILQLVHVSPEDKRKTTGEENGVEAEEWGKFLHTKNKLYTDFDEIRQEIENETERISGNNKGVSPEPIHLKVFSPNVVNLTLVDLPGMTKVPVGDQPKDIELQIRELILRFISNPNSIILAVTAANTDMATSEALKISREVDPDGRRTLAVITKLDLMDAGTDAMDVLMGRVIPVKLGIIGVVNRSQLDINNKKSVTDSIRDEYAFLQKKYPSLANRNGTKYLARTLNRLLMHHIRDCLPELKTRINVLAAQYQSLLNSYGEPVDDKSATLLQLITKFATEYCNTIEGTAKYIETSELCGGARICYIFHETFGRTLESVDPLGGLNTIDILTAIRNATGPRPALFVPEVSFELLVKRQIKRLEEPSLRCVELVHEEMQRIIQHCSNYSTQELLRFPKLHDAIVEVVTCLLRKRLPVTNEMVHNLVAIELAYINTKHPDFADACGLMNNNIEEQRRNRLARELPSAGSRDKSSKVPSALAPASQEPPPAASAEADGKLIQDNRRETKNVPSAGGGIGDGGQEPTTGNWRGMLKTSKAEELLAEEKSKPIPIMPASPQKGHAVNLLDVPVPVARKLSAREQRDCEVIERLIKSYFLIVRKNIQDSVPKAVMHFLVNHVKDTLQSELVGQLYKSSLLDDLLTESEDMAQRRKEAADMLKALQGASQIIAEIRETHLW", "UniProt Q9CPX9": "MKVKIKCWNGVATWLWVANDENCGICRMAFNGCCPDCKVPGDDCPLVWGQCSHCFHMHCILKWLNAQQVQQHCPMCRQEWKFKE", "UniProt Q8BZQ7": "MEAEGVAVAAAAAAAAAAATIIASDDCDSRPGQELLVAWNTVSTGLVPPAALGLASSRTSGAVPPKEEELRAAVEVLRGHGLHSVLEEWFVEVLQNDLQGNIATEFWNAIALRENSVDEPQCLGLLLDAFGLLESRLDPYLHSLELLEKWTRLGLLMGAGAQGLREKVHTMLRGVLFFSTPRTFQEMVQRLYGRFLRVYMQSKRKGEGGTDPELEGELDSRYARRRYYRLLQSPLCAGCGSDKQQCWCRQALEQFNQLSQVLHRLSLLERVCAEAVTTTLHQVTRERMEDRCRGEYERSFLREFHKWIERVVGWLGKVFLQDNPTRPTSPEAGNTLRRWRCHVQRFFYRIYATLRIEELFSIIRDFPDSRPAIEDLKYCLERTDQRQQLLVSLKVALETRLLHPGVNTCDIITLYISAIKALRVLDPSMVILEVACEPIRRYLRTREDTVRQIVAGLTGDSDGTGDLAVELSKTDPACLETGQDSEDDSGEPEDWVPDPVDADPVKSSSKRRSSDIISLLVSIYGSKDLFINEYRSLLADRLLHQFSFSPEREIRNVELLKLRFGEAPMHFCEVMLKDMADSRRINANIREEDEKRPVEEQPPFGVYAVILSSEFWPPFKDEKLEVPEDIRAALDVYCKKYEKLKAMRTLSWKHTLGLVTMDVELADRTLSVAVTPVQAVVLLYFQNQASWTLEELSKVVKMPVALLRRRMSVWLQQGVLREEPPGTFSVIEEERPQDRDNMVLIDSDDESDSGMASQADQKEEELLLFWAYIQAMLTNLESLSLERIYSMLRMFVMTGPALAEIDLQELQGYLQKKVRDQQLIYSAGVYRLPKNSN"},
  "source": "paper PMC9747930",
  "key": {"[1]": {"target": "Dynamin-related protein 1 (DRP1) (mouse (endogenous in oocytes)) (UniProt Q8K1M6)", "assay": "co-IP; lysate of 1000 mouse oocytes in IP buffer (20 mM Tris-HCl, 10 mM EDTA, 1 mM EGTA, 150 mM NaCl, 0.05% Triton X-100, 0.05% NP-40); antibody on protein A&G agarose beads, 4 °C overnight; endogenous proteins, immunoblot"}, "[2]": {"target": "Centromere protein F (CENP-F) (mouse (endogenous in oocytes)) (UniProt Q155P7)", "assay": "co-IP; lysate of 1000 mouse oocytes in IP buffer (20 mM Tris-HCl, 10 mM EDTA, 1 mM EGTA, 150 mM NaCl, 0.05% Triton X-100, 0.05% NP-40); antibody on protein A&G agarose beads, 4 °C overnight; endogenous proteins, immunoblot"}, "[3]": {"target": "T1, eGFP-CENP-F^ΔC/N (964-1983) (mouse) (UniProt Q155P7)", "T1 sequence": "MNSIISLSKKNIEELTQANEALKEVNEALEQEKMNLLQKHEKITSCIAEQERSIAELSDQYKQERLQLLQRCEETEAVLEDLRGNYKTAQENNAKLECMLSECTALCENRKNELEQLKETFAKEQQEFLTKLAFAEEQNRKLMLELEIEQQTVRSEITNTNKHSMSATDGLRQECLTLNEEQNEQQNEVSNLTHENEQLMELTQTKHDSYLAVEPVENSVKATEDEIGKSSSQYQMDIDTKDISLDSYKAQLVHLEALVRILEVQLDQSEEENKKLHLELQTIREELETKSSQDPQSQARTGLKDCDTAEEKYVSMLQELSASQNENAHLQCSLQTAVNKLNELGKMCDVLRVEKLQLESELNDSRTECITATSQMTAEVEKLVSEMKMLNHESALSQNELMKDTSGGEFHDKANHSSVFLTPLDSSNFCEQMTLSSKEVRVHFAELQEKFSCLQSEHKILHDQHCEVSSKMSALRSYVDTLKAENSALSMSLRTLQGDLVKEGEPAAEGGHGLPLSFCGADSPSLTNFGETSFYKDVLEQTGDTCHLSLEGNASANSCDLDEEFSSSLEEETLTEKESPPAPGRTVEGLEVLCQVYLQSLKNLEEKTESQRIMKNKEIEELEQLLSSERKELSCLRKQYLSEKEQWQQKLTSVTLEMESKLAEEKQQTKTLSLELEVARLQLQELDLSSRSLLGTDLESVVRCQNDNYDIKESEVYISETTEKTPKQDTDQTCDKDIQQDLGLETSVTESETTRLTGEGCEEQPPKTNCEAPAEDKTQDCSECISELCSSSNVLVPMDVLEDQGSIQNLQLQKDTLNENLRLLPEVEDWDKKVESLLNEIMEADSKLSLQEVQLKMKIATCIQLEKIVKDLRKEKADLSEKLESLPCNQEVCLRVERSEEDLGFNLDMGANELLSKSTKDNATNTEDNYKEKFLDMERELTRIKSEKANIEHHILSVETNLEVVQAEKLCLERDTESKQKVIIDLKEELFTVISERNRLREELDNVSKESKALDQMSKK", "assay": "co-IP; HEK-293 cells co-transfected for 48 h with eGFP-Cenp-f fragment and cMyc-Drp1; lysates incubated with anti-eGFP; immunoblot with anti-eGFP and anti-cMyc"}},
  "note": "These are yes or no findings as the source states them, for the method shown. In cells and extracts the contact can be indirect. Some results given as binding are weak or reduced against the parent protein; the word gives no strength. For some assays here: Sequences can lack the tags named with a protein.",
  "data": [
    {"substance": "Centromere protein F (CENP-F) (from UniProt Q155P7 1-2997)", "values": [
      {"measurement": "binding", "setting": "[1]", "value": "binds"}
    ]},
    {"substance": "APC11 (from UniProt Q9CPX9 1-84)", "values": [
      {"measurement": "binding", "setting": "[1]", "value": "no binding"}
    ]},
    {"substance": "Dynamin-related protein 1 (DRP1) (from UniProt Q8K1M6 1-736)", "values": [
      {"measurement": "binding", "setting": "[2]", "value": "binds"}
    ]},
    {"substance": "APC2 (from UniProt Q8BZQ7 1-837)", "values": [
      {"measurement": "binding", "setting": "[1]", "value": "binds"}
    ]},
    {"substance": "cMyc-DRP1 (from UniProt Q8K1M6 1-736)", "values": [
      {"measurement": "binding", "setting": "[3]", "value": "binds"}
    ]}
  ]
}
